# Data reported in the supplement of paper PMC11417369.
# ± gives the standard deviation of the averaged measurements. Some of the results follow.
# Test system: PfAP2-G AP2 domain (GST-tagged)
# Assay: gcPBM binding intensity (ln(normalized median fluorescence intensity)); higher = stronger DNA binding
# In short: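 An Agilent 4 × 180k array carrying primer-extended double-stranded 36-bp intergenic genomic probes and negative controls received GST-tagged P. falciparum DNA-binding domains expressed in E. coli, about 25 μg on average, for 1 h. The binding buffer contained 1× PBS, 1% milk, 0.2 mg/ml BSA, 0.5% salmon testes DNA and 0.03% Triton X-100. Binding intensity is the top Masliner-normalised natural-log median intensity across replicate spots of either probe orientation, read after Alexa488 anti-GST antibody staining and a 488 nm scan.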
row,Sequence,gcPBM binding intensity (ln)
1,TTAATTACATGTTATTGTACGTATTTTCTATCTATC [XGTACX_site844],11.6 ± 1.2
2,TTTTTTTTTTCTTAGGTGCAAAAAATAAGTATATAT [GTGCAC_site9394],10.4 ± 0.45
3,AAAAAAAAAAGAACCCGTACATAAATAATATATATA [XGTACX_site164],11.1 ± 0.86
4,AAAAAGAAGAATATATGTACACAAAATTTATGAGTT [XGTACX_site8609],11.4 ± 0.81
5,AAAAAAAAAAATATATTATTTTACTTGTTTATTTTA [CACACA_negctrl_site1447],9.38 ± 0.19
6,CATTATAAGAAACACACACACATATATATATATATA [CACACA_site1051],10.1 ± 0.28
7,AAATTCTTAACCCAACGTACATATAATAAATTCTTA [XGTACX_site8538],11.1 ± 0.65
8,TAAACCAAACAATTATGTATAAGATGTATATATATA [GTGCAC_negctrl_site438],9.88 ± 0.45
9,CTTACAAATAAACAACGTACTTATTCGAATTATGCT [XGTACX_site2431],11 ± 0.47
10,AAAAAAATTCTTGGCGCACACACTTTAAAAATTAAA [CACACA_site597],10.5 ± 0.34
11,AAGGATTACAAAAAAAGTACAAATGGATTTTTTCCC [XGTACX_site8905],11.3 ± 0.81
12,AACCACATGGTGTAATGTACATTACCTTAACAATAA [XGTACX_site3055],10.7 ± 0.42
13,AAATATTATATATATACACACACACCGGCATGCACA [CACACA_site7916],9.885 ± 0.049
14,TATAATAAAATTGGTAGTACATTAATTTATGTATAG [XGTACX_site3059],11.5 ± 1.1
15,TATTATTTTTTTTTTTGTACATATATGTATATATAT [XGTACX_site8471],10.9 ± 0.61
16,CATACAGACGAACACACACACATATAAATATAAATA [CACACA_site6443],10.2 ± 0.25
17,TACATATATAAAAATTGTACACTTCATAAGAAAAAA [XGTACX_site4347],11.2 ± 0.7
18,TTAAATAAGTTCTTCACACATATATATATATATATA [CACACA_site4742],10.1 ± 0.36
19,AAATGCGCCATGTGTACACATATATATATATATATA [CACACA_site4649],11.5 ± 0.88
20,GTTTTAAAATTAAATATTATGGCATAATTCAAGAAA [GTGCAC_negctrl_site721],10 ± 0.11
21,AAAATTTTTTAACACTGTACTTGTAATATTAAAACT [XGTACX_site8369],11.5 ± 1
22,TTTTTTTTTTATTTTTGTACATATATTTCAGTATTA [XGTACX_site8396],11 ± 0.71

row,Sequence,gcPBM binding intensity (ln)
1,TAATTATTCTATTAAGTGCATATATTTTTAAAAAGA,9.925 ± 0.092
2,ATAATATTCGAGTGTGCACACAAACATACATATATA [CACACA_site3396],10.6 ± 0.43
3,ATTTTTATTAAAATATGTACGTATTTTACTCATACA [XGTACX_site5330],11.6 ± 0.8
4,ATACAGAAAAAAAACACACACACATAATATACATAC [CACACA_site1933],10.11 ± 0.078
5,ACAGATATATTTATTTGTACATATCACCAAAATGGA [XGTACX_site5644],10.9 ± 0.26
6,ATATATATATATCACCGTACTTATATAATAACATGA [XGTACX_site4398],10.9 ± 0.6
7,AAAAATGAGAAACACACACACATATATATATATATA [CACACA_site2228],10 ± 0.31
8,TCTTTAAATCGAGTGTTAAATAATATAATATAAAAA [CACACA_negctrl_site1507],9.93 ± 0.2
9,AACCAATATGAGTATACACACATAAATATAAATATA [CACACA_site5968],10.1 ± 0.26
10,AAAAAAAAAAAAGATACACACAAAAATGGATATATA [CACACA_site7069],9.95 ± 0.11
11,TTAATATAATAAAATCGTACAAATAAAATATAAAAT [XGTACX_site8730],11.1 ± 0.65
12,AAGTTTATTTGTTGCACACATATAAGTAGAGAAAAT [CACACA_site3027],10.3 ± 0.26
13,TTTTCAAAATAATATTATATCAAATGCTAAAAAGAA [TGCATGCA_negctrl_site588],9.89 ± 0.18
14,TAAGAATAATGACATAGTACAATTTAATAGATCTAA [XGTACX_site3670],10.6 ± 0.35
15,ATTAAATACTTCGATTGTACAATTTTTTTTTTTTTT [XGTACX_site832],11 ± 0.64
16,TACAGATATTATTGCACACATATAAAATACCCCCAA [CACACA_site6014],10.9 ± 0.5
17,TTACGTTATATACATACACACCCACGCACAAAAAAA [CACACA_site6537],10.6 ± 0.51
18,TAATATTTATGTTAATGTACAAAAAAACAAAACAAA [XGTACX_site301],10.8 ± 0.36
19,GTATGTATATATGTATGTACTTATGTATCATTATTA [XGTACX_site2438],11.2 ± 0.83
20,ATAATATATATTAAACGTACATAAAATAATTATGGA [XGTACX_site1670],11.4 ± 0.7
21,ATAAAACAATAAAATTGTACATAAATTGATTATACT [XGTACX_site6723],10.9 ± 0.49
22,GAATAAATAGACGAGTGTACTTTTTTTTAAAAAAAA [XGTACX_site7880],11.6 ± 0.91

row,Sequence,gcPBM binding intensity (ln)
1,ACGTTTACGTTATTATGTACGTAATATATCATACCT [XGTACX_site5006],11.5 ± 1.1
2,GAAAAAAAAAAAAAAAAAAAAAGGAAAAAAGTGAAA [CACACA_negctrl_site996],9.52 ± 0.11
3,GTATATATTTAAACACGTACACAAAACCCAAAAAAT [XGTACX_site8110],11.8 ± 0.96
4,ATACACTCACTCACACGTACAGACAACGGACGATCA [XGTACX_site1097],11.5 ± 0.88
5,AATTAAATTAGAAGCACACACATATTTATATTTATA [CACACA_site7552],9.995 ± 0.049
6,TTTCATTTAGCTTTTACACACTATATATCATTGATT [CACACA_site6158],9.93 ± 0.15
7,AATAATAACACCGTGGATACACAATAACAAAGAACT [CACACA_negctrl_site532],10.3 ± 0.11
8,AAATATTTTTTTTCTACACACATACAAATATATATT [CACACA_site5325],10.26 ± 0.085
9,TTGCAACTCTTCAATCGTACACATTATTTATTATAT [XGTACX_site1377],11.3 ± 0.64
10,TACATATACATATACACACACACACCCAAATAAATA [CACACA_site1344],10.3 ± 0.35
11,TGAGAGTTCTCATATGCACACAAAAAACTTTCATTT [CACACA_site7898],10.035 ± 0.007
12,TTTTTTTTAAAAAACACACACCTAAACAAGATATTT [CACACA_site6541],10.2 ± 0.21
13,CATATTTTTAAATACACACACATAAAAAAAAAAAAA [CACACA_site1095],10.1 ± 0.42
14,AAATAAAAAAGTAGTACACACTTCACGATATTTTTT [CACACA_site6015],11.6 ± 1
15,AAAAATATAAACTGCACACACACAAAAAAAGAAAAA [CACACA_site648],10.1 ± 0.16
16,TTATTATAATCATTAGTGCATATATTATTTTTATAT,9.85 ± 0.042
17,TATATACATATATGTACACACATTACAGATGTACAT [CACACA_site966],11.7 ± 0.93
18,TATATTTACAATAAAACGTTATTTTTTGTTATTTTC [CACACA_negctrl_site612],9.55 ± 0.15
19,AATCTAATATAATGCACACATAAAAAAAAAATCAAA [CACACA_site2714],10.2 ± 0.3
20,ATTTCGAATATTAAGTGTACAATATAAATATATAAA [XGTACX_site6674],11.3 ± 0.75
21,TTATATGAATTTTAGATTTATAATACAAGAATATTC [CACACA_negctrl_site70],9.665 ± 0.007
22,ATAATTTGTGGACACACACACACACCGACATATATA [CACACA_site8718],11.5 ± 1

row,Sequence,gcPBM binding intensity (ln)
1,TTATTCACTTCTTTTTAAAAAAAAAAAAAAAAAAAA [CACACA_negctrl_site223],9.8 ± 0.48
2,TTGTTAATGGTACGAACACACATATAAAGATGCATA [CACACA_site2044],10.5 ± 0.34
3,AAAAAAAAAAAAAAAAGTACAAATAAAAAAAAAATA [XGTACX_site4814],11.4 ± 0.85
4,ATTAAATACATTAACACACACACAAATATGTACATA [CACACA_site7372],11.5 ± 0.83
5,ATATTATATAATATACGTACATATATTATGCATAAA [XGTACX_site7895],11.5 ± 0.98
6,TACGTAGCCACACTAACACACACAAATATGCACAAT [CACACA_site8942],10.3 ± 0.24
7,TTACTTAAGAAACACACACACAAAAAAAAAAAAAAA [CACACA_site946],9.91 ± 0.54
8,ATCATAATCATAAAAAGTACAAACGATAAAATAAAT [XGTACX_site3832],11.2 ± 0.82
9,TATGTAAAAAATTTAACACACACATATATATATATA [CACACA_site8829],10.1 ± 0.53
10,TGTTATTTTAAAAAAAAAATTATTAACTTAAAAAAA [CACACA_negctrl_site1641],9.62 ± 0.071
11,TTTTTTTCTGTGAGTGCATGTAATAAAATAAATTTA [TGCATGCA_site276],10.2 ± 0.26
12,CAACATATATTAATATGTACATATATATAGATATAT [XGTACX_site4107],11.2 ± 0.58
13,TATTTATAATAGTGTACACAATTATAAACTGAATAT [CACACA_site6041],11.7 ± 0.89
14,TATTATTGTCTTTCAAAAAAAAAAAAAAAAAAAAAA [CACACA_negctrl_site1242],9.76 ± 0.7
15,TATTATTCATAATTTATCTTTTAAATTAAATCACAA [GTGCAC_negctrl_site288],9.57 ± 0.085
16,CATACTCACCAACACACACACACACCCATATAGAAT [CACACA_site592],10.3 ± 0.36
17,TATATATATACTTAATGTACATATATATATATATAT [XGTACX_site3102],11.1 ± 0.79
18,AACAAACACAGACACACACACACACCCAAATGATTA [CACACA_site2431],10.4 ± 0.36
19,ATAATATAACACAAATGTACAAAAAATAAATAAATA [XGTACX_site385],10.7 ± 0.4
20,CTTTTTGAAATATTAACACACATTTTGTTAATTAAT [CACACA_site4046],9.72 ± 0.085
21,CACAGATAAATTAACACACACACACCCATATATATA [CACACA_site3960],10 ± 0.14
22,CTATATTATAAATATACACACATATCTTAAGTATAA [CACACA_site3096],10.2 ± 0.23
